No constants are given. Whether binding was seen depends on the method and setting. For part of these data: Binding seen in cells or lysates may run through a third protein. Some entries that bind do so weakly or less than the wild type. Tags and fused reporters may be left off the sequences shown. Each block holds one molecule with its values, some of them ahead of it.
Tests used:
GST-CGN (1015–1203) = biological target: T1, GST-CGN (1015–1203) (UniProt Q9P2M7); assay: pull-down; affinity purified GST-tagged CGN or CGNL1 fragments as baits on magnetic beads; HA-tagged full-length NM2 preys in HEK lysates; IB with anti-HA (Fig. 1 C, D); only the target purified
T1 sequence: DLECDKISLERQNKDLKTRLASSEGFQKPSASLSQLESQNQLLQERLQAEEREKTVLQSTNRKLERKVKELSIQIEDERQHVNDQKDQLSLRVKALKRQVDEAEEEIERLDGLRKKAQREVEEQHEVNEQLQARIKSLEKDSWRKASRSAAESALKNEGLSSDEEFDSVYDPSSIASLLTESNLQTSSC

[1] = biological target: T2, GST-CGNL1 (884–1302), Rod2 bait of CGNL1 (UniProt Q0VF96); assay: as above
T2 sequence: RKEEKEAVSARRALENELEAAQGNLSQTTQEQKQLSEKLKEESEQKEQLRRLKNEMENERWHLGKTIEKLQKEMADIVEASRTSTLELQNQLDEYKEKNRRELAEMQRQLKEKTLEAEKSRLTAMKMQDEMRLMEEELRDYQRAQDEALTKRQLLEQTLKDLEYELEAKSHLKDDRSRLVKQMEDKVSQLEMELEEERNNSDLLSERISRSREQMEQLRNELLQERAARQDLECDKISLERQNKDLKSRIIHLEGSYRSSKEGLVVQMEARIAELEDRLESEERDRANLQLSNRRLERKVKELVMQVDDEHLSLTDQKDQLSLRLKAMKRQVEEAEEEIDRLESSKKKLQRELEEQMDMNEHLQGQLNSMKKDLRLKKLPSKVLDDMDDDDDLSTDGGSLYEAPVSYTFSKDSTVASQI

[2] = biological target: T3, GST-hCGN (667–1203), Rod2 bait of CGN (human) (UniProt Q9P2M7); assay: as above
T3 sequence: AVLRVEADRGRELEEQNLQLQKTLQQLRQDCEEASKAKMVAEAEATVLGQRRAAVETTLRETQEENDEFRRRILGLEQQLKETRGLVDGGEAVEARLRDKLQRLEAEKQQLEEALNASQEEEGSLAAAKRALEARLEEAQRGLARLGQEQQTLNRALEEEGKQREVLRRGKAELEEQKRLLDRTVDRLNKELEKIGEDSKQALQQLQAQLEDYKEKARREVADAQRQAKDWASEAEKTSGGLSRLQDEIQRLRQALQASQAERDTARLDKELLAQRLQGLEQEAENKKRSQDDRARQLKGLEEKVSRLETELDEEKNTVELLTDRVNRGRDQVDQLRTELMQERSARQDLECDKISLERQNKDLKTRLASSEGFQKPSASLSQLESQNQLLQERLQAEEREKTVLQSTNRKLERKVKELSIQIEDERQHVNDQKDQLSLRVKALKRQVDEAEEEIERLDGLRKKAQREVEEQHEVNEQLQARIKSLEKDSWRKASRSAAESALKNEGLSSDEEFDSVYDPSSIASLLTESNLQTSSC

GST-CGN (1–226) = biological target: T4, GST-CGN (1–226) (UniProt Q9P2M7); assay: as above
T4 sequence: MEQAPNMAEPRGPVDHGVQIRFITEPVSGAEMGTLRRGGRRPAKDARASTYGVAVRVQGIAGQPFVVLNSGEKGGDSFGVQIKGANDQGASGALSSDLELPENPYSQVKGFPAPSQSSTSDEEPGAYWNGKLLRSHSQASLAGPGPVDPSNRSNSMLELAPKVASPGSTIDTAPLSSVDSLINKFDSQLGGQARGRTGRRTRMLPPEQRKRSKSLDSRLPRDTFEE

[3] = biological target: T5, GST-hCGNL1 (421–603) (human) (UniProt Q0VF96); assay: as above
T5 sequence: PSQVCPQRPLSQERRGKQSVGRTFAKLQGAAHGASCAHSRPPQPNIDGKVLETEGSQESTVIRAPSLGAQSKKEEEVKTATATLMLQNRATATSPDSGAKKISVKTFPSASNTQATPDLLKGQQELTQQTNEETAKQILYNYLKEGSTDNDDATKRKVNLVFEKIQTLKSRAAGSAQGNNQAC

[4] = biological target: T6, GST-cNM2A (1461–1710) (canis (dog)) (UniProt Q258K2); assay: pull-down; affinity purified GST-tagged cNM2A, cNM2B, cNM2C rod fragments as baits; His-tagged full-length CGN and CGNL1 purified from baculovirus-infected insect cells as preys; IB with anti-His (Fig. 1 H–J); both purified
T6 sequence: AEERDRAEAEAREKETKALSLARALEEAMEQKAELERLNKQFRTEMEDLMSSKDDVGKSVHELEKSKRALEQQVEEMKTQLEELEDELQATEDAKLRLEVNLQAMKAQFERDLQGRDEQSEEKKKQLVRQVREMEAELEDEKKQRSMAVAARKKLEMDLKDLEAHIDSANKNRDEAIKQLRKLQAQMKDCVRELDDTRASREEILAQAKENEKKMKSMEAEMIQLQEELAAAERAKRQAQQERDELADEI

[5] = biological target: T7, GST-cNM2A (1711–1960) (canis (dog)) (UniProt Q258K2); assay: as above
T7 sequence: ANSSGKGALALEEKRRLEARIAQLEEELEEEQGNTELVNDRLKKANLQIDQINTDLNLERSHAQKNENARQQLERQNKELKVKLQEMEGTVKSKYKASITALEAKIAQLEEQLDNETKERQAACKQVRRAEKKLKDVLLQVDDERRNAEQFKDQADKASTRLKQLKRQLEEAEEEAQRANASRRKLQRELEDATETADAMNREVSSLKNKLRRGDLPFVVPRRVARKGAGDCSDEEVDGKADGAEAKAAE

[6] = biological target: T8, GST-cNM2A (1461–1960) (canis (dog)) (UniProt Q258K2); assay: as above
T8 sequence: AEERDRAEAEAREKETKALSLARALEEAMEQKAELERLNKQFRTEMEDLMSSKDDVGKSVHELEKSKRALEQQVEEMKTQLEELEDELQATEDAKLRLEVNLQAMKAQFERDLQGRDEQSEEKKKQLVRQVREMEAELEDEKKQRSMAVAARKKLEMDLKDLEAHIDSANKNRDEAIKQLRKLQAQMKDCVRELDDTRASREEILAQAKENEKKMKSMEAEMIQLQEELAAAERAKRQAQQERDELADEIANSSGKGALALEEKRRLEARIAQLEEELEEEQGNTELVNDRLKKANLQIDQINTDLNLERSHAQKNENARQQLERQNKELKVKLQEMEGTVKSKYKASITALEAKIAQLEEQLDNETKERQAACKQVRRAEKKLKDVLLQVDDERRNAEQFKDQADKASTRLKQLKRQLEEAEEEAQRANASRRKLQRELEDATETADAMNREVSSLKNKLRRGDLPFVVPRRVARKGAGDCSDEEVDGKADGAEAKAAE

binding (GST-CGN (1015–1203)): binds | binding [1]: binds | binding [2]: binds | binding (GST-CGN (1–226)): binds | binding [3]: binds weakly
Molecule: HA-hNM2B (full-length nonmuscle myosin-2B heavy chain) (from UniProt P35580 1-1976)

binding [4]: no binding
B1: full-length hCGNL1 (10xHis-2xStrep), purified (protein, UniProt Q0VF96 1-1302)
chain: MELYFGEYQHVQQEYGVHLRLASDDTQKSRSSQNSKAGSYGVSIRVQGIDGHPYIVLNNTERCLAGTSFSENGPPFPPPVINNLPLHSSNGSVPKENSEELQLPENPYAQPSPIRNLKQPLLHEGKNGVLDRKDGSVKPSHLLNFQRHPELLQPYDPEKNELNLQNHQPSESNWLKTLTEEGINNKKPWTCFPKPSNSQPTSPSLEDPAKSGVTAIRLCSSVVIEDPKKQTSVCVNVQSCTKERVGEEALFTSGRPLTAHSPHAHPETKKTRPDVLPFRRQDSAGPVLDGARSRRSSSSSTTPTSANSLYRFLLDDQECAIHADNVNRHENRRYIPFLPGTGRDIDTGSIPGVDQLIEKFDQKPGLQRRGRSGKRNRINTDDRKRSRSVDSAFPFGLQGNSEYLIEFSRNLGKSSEHLLRPSQVCPQRPLSQERRGKQSVGRTFAKLQGAAHGASCAHSRPPQPNIDGKVLETEGSQESTVIRAPSLGAQSKKEEEVKTATATLMLQNRATATSPDSGAKKISVKTFPSASNTQATPDLLKGQQELTQQTNEETAKQILYNYLKEGSTDNDDATKRKVNLVFEKIQTLKSRAAGSAQGNNQACNSTSEVKDLLEQKSKLTIEVAELQRQLQLEVKNQQNIKEERERMRANLEELRSQHNEKVEENSTLQQRLEESEGELRKNLEELFQVKMEREQHQTEIRDLQDQLSEMHDELDSAKRSEDREKGALIEELLQAKQDLQDLLIAKEEQEDLLRKRERELTALKGALKEEVSSHDQEMDKLKEQYDAELQALRESVEEATKNVEVLASRSNTSEQDQAGTEMRVKLLQEENEKLQGRSEELERRVAQLQRQIEDLKGDEAKAKETLKKYEGEIRQLEEALVHARKEEKEAVSARRALENELEAAQGNLSQTTQEQKQLSEKLKEESEQKEQLRRLKNEMENERWHLGKTIEKLQKEMADIVEASRTSTLELQNQLDEYKEKNRRELAEMQRQLKEKTLEAEKSRLTAMKMQDEMRLMEEELRDYQRAQDEALTKRQLLEQTLKDLEYELEAKSHLKDDRSRLVKQMEDKVSQLEMELEEERNNSDLLSERISRSREQMEQLRNELLQERAARQDLECDKISLERQNKDLKSRIIHLEGSYRSSKEGLVVQMEARIAELEDRLESEERDRANLQLSNRRLERKVKELVMQVDDEHLSLTDQKDQLSLRLKAMKRQVEEAEEEIDRLESSKKKLQRELEEQMDMNEHLQGQLNSMKKDLRLKKLPSKVLDDMDDDDDLSTDGGSLYEAPVSYTFSKDSTVASQI

binding [5]: binds weakly | binding [6]: binds weakly | binding [4]: no binding
B2: full-length hCGN (CGN-FL-10xHis-2xStrep), purified (protein, UniProt Q9P2M7 1-1203)
chain: MEQAPNMAEPRGPVDHGVQIRFITEPVSGAEMGTLRRGGRRPAKDARASTYGVAVRVQGIAGQPFVVLNSGEKGGDSFGVQIKGANDQGASGALSSDLELPENPYSQVKGFPAPSQSSTSDEEPGAYWNGKLLRSHSQASLAGPGPVDPSNRSNSMLELAPKVASPGSTIDTAPLSSVDSLINKFDSQLGGQARGRTGRRTRMLPPEQRKRSKSLDSRLPRDTFEERERQSTNHWTSSTKYDNHVGTSKQPAQSQNLSPLSGFSRSRQTQDWVLQSFEEPRRSAQDPTMLQFKSTPDLLRDQQEAAPPGSVDHMKATIYGILREGSSESETSVRRKVSLVLEKMQPLVMVSSGSTKAVAGQGELTRKVEELQRKLDEEVKKRQKLEPSQVGLERQLEEKTEECSRLQELLERRKGEAQQSNKELQNMKRLLDQGEDLRHGLETQVMELQNKLKHVQGPEPAKEVLLKDLLETRELLEEVLEGKQRVEEQLRLRERELTALKGALKEEVASRDQEVEHVRQQYQRDTEQLRRSMQDATQDHAVLEAERQKMSALVRGLQRELEETSEETGHWQSMFQKNKEDLRATKQELLQLRMEKEEMEEELGEKIEVLQRELEQARASAGDTRQVEVLKKELLRTQEELKELQAERQSQEVAGRHRDRELEKQLAVLRVEADRGRELEEQNLQLQKTLQQLRQDCEEASKAKMVAEAEATVLGQRRAAVETTLRETQEENDEFRRRILGLEQQLKETRGLVDGGEAVEARLRDKLQRLEAEKQQLEEALNASQEEEGSLAAAKRALEARLEEAQRGLARLGQEQQTLNRALEEEGKQREVLRRGKAELEEQKRLLDRTVDRLNKELEKIGEDSKQALQQLQAQLEDYKEKARREVADAQRQAKDWASEAEKTSGGLSRLQDEIQRLRQALQASQAERDTARLDKELLAQRLQGLEQEAENKKRSQDDRARQLKGLEEKVSRLETELDEEKNTVELLTDRVNRGRDQVDQLRTELMQERSARQDLECDKISLERQNKDLKTRLASSEGFQKPSASLSQLESQNQLLQERLQAEEREKTVLQSTNRKLERKVKELSIQIEDERQHVNDQKDQLSLRVKALKRQVDEAEEEIERLDGLRKKAQREVEEQHEVNEQLQARIKSLEKDSWRKASRSAAESALKNEGLSSDEEFDSVYDPSSIASLLTESNLQTSSC
